# Measurements: US10299477B2 (priority 2015, dated 2019)
# How the values were obtained:
# Format in all cases: in vivo
# Plasmopara viticola = assay: Test Example G: Downy mildew on vine; conditions: for Test G (control value class): 250 ppm spray; for Test G (control value class, downy mildew on vine): 250 ppm, sprayed 2.5 ml/pot before inoculation
# Text: [Test Example G] Downy Mildew on Vine
# Seeds of a test plant (grape variety: Neomuscat) were planted followed by cultivating until three to four first leaves appeared. […] After the sprayed dilutions were dried, a zoosporangia suspension (1-2×10^4 zoosporangia/ml) of Plasmopara viticola was inoculated to the plants by spraying.
# Botrytis cinerea = assay: Test Example B: Gray mold on tomato; conditions: for Test B (control value class, gray mold on tomato): in vivo
# Text: [Test Example B] Gray Mold on Tomato
# Seeds of a test plant (tomato variety: Oogata Fukuju) were planted followed by cultivating until three to five first leaves (true leaves) appeared.
# Puccinia recondita = assay: Test Example E: Brown rust on wheat; conditions: for Test E (control value class, brown rust on wheat): in vivo
# Text: [Test Example E] Brown Rust on Wheat
# Alternaia brassicicola = assay: Test Example C: Alternaria sooty spot on cabbage; conditions: for Test C (control value class, Alternaria sooty spot on cabbage): in vivo
# Text: [Test Example C] Alternaria Sooty Spot on Cabbage
# Seeds of a test plant (cabbage variety: Shikidori) were planted followed by cultivating until the cotyledons extended.
# [1] = system: Blumeria graminis f sp. hordei; assay: Test Example D: Powdery mildew on barley; conditions: for Test D (control value class, powdery mildew on barley): in vivo
# Text: [Test Example D] Powdery Mildew on Barley
# After the sprayed dilutions were dried, conidia of Blumeria graminis f sp. hordei were inoculated to the plants by shaking off.
# [2] = downy mildew on vine, Plasmopara viticola, 7-10 days after inoculation
# [3] = gray mold on tomato, Botrytis cinerea, 250 ppm spray
# [4] = brown rust on wheat, Puccinia recondita, 250 ppm spray
# [5] = Alternaria sooty spot on cabbage, 250 ppm spray
# [6] = powdery mildew on barley, 250 ppm spray
# [7] = evaluated 7-10 days after inoculation
# [8] = 250 ppm spray, preventive, control value class
Structure (SMILES),Test G (control value class) (Plasmopara viticola; [2]),Test B (control value class) (Botrytis cinerea; [3]),Test E (control value class) (Puccinia recondita; [4]),Test C (control value class) (Alternaia brassicicola; [5]),"Test D (control value class) [1, 6]","Test G (control value class, downy mildew on vine) (Plasmopara viticola; [7])","Test B (control value class, gray mold on tomato) (Botrytis cinerea)","Test E (control value class, brown rust on wheat) (Puccinia recondita)","Test C (control value class, Alternaria sooty spot on cabbage) (Alternaia brassicicola)","Test D (control value class, powdery mildew on barley) [1]",further results
O=c1ccc(-c2cccc(F)c2Cl)c(-c2c(F)cccc2F)n1CC(F)F [Compound 510],H (H shows more than 50% of control values),H (H shows more than 50% of control values),H (H shows more than 50% of control values),H (H shows more than 50% of control values),H (H shows more than 50% of control values),,,,,,
Cn1c(-c2c(F)cc(F)cc2F)c(-c2cc(F)cc(F)c2Cl)cc(Cl)c1=O [Compound 587],,,,,,L (L shows 50% or less of control values),H (H shows more than 50% of control values),H (H shows more than 50% of control values),H (H shows more than 50% of control values),H (H shows more than 50% of control values),
Cn1c(-c2c(F)cccc2F)c(-c2cc(Cl)ccc2F)cc(Cl)c1=O [Compound 525],L (L shows 50% or less of control values),H (H shows more than 50% of control values),H (H shows more than 50% of control values),L (L shows 50% or less of control values),L (L shows 50% or less of control values),,,,,,
CCn1c(-c2c(F)cc(F)cc2F)c(-c2cc(F)cc(F)c2Cl)cc(Cl)c1=O [Compound 585],,,,,,L (L shows 50% or less of control values),H (H shows more than 50% of control values),H (H shows more than 50% of control values),H (H shows more than 50% of control values),H (H shows more than 50% of control values),
Cn1c(-c2c(F)cccc2F)c(-c2cccc(F)c2F)cc(Cl)c1=O [Compound 537],L (L shows 50% or less of control values),H (H shows more than 50% of control values),H (H shows more than 50% of control values),H (H shows more than 50% of control values),H (H shows more than 50% of control values),,,,,,
CCn1c(-c2c(F)cccc2F)c(-c2cccc(F)c2)cc(Cl)c1=O [Compound 154],,,,,,,,,,,"Test G control value (Plasmopara viticola; Downy mildew on vine, 250 ppm sprayed before inoculation, 7-10 days after inoculation): L (L shows 50% or less of control values); Test B control value (Botrytis cinerea; Gray mold on tomato): H (H shows more than 50% of control values); Test E control value (Puccinia recondita; Brown rust on wheat): H (H shows more than 50% of control values); Test C control value (Alternaia brassicicola; Alternaria sooty spot on cabbage): H (H shows more than 50% of control values); Test D control value ([1]; Powdery mildew on barley): H (H shows more than 50% of control values)"
CCn1c(-c2c(F)cc(F)cc2F)c(-c2ccc(Br)cc2Cl)ccc1=O [Compound 624],,,,,,H (H shows more than 50% of control values),H (H shows more than 50% of control values),H (H shows more than 50% of control values),H (H shows more than 50% of control values),H (H shows more than 50% of control values),
Cn1c(-c2c(F)cc(Cl)cc2F)c(-c2cc(F)ccc2Cl)cc(Br)c1=O [Compound 606],,,,,,L (L shows 50% or less of control values),H (H shows more than 50% of control values),H (H shows more than 50% of control values),H (H shows more than 50% of control values),H (H shows more than 50% of control values),
COc1cc(F)c(-c2c(-c3cccc(OC)c3Cl)cc(Cl)c(=O)n2C)c(F)c1 [Compound 788],,,,,,,,,,,"Test G (control value class) (Plasmopara viticola; Downy mildew on vine, 2.5 ml/pot, evaluated 7-10 days after inoculation): L (L shows 50% or less of control values); Test B (control value class) (Botrytis cinerea; Gray mold on tomato, control value=100{1-(n/3)}): H (H shows more than 50% of control values); Test E (control value class) (Puccinia recondita; Brown rust on wheat, control value=100{1-(n/3)}): H (H shows more than 50% of control values); Test C (control value class) (Alternaia brassicicola; Alternaria sooty spot on cabbage, control value=100{1-(n/3)}): H (H shows more than 50% of control values); Test D (control value class) ([1]; Powdery mildew on barley, control value=100{1-(n/3)}): L (L shows 50% or less of control values)"
CCn1c(-c2c(F)cccc2F)c(-c2cc(F)cc(F)c2Cl)ccc1=O [Compound 551],L (L shows 50% or less of control values),H (H shows more than 50% of control values),H (H shows more than 50% of control values),H (H shows more than 50% of control values),H (H shows more than 50% of control values),,,,,,
Cn1c(-c2c(F)cc(F)cc2F)c(-c2cc(F)cc(F)c2F)ccc1=O [Compound 466],L (L shows 50% or less of control values),H (H shows more than 50% of control values),H (H shows more than 50% of control values),H (H shows more than 50% of control values),H (H shows more than 50% of control values),,,,,,
Cn1c(-c2c(F)cccc2F)c(-c2cccc(Cl)c2Cl)ccc1=O [Compound 364],,,,,,,,,,,"Test G control value (downy mildew on vine) (Plasmopara viticola; 250 ppm spray (2.5 ml/pot), preventive, 7-10 days after inoculation, control value class): L (L shows 50% or less of control values); Test B control value (gray mold on tomato) (Botrytis cinerea; [8]): H (H shows more than 50% of control values); Test E control value (brown rust on wheat) (Puccinia recondita; [8]): H (H shows more than 50% of control values); Test C control value (Alternaria sooty spot on cabbage) (Alternaia brassicicola; [8]): H (H shows more than 50% of control values); Test D control value (powdery mildew on barley) [1, 8]: H (H shows more than 50% of control values)"
CCn1c(-c2c(F)cc(Cl)cc2F)c(-c2cc(F)ccc2Cl)cc(Br)c1=O [Compound 603],,,,,,L (L shows 50% or less of control values),L (L shows 50% or less of control values),H (H shows more than 50% of control values),H (H shows more than 50% of control values),H (H shows more than 50% of control values),
